Measurements as given in PubChem BioAssay AID2676 (National Center for Advancing Translational Sciences (NCATS), 2010).
Screen size: about 370,000 compounds; about 1,100 (0.3%) were called active. About 1% were inconclusive and are not listed. The call rests on the fitted dose curve; in most records, active means well fitted activation curve with a large enough effect; inconclusive means small, poorly fitted or top-dose-only effect; inactive means flat fitted curve, though single readings scatter. More than one record can exist for a structure, and the calls need not agree. Certain results were filed several times, with different values. They are shown here; other results are not. An entry can have further records. The records of an entry are repeats in other runs, samples, wells, individuals or studies. What stands in brackets tells the records apart. Letters hold for one entry only.

Target: Relaxin receptor 1 (Homo sapiens) (UniProt Q9HBX9)
Assay: qHTS Assay for Agonists of the Relaxin Receptor RXFP1; further: nearly all actives have a fitted effect of over 60% in size
Conditions: HEK293T-RXFP1 cAMP TR-FRET, 30 min; series mostly up to 57.5 µM
Source text: NIH Chemical Genomics Center [NCGC] NIH Molecular Libraries Probe Production Centers Network [MLPCN] MLPCN Grant: R03 MH085705-01A1 Assay Submitter (PI): Alexander Agoulnik NCGC Assay Overview: The relaxin hormone is involved in the variety of biological functions in normal tissues and diseases. The role of relaxin is well-established in female reproduction and parturition, mammary gland and endometrial development, maintenance of myometrial quiescence during pregnancy. Relaxin signaling through its G protein-coupled receptor (GPCR) RXFP1 results in ECM remodeling through regulation of collagen deposition, cell invasiveness, proliferation and overall tissue homeostasis. […] RXFP1 activation was assayed by changes in cAMP levels as detected with a time-resolved fluorescence energy transfer (TR-FRET) cAMP detection kit.
NCGC Assay Protocol Summary: This is a cell-based assay for cAMP second messenger response to screen for agonists of the RXFP1 receptor. […] The cells were lysed and the cAMP levels were measured with a TR-FRET cAMP kit. […] The EC50 values were determined from concentration-response data modeled with the standard Hill equation 1536-well assay protocol for the HEK293 RXFP1 cAMP assay: (1) Add 3 ul HEK293 RXFP1 cell culture. […] (6) Detect the assay plate in a ViewLux plate reader (PerkinElmer) with Ex=320 nm, Em1=615 nm and Em2=665 nm. […]
Potency means the concentration at half of the fitted maximal effect.

Chain of UniProt Q9HBX9 (Q9HBX9 whole entry, looked up): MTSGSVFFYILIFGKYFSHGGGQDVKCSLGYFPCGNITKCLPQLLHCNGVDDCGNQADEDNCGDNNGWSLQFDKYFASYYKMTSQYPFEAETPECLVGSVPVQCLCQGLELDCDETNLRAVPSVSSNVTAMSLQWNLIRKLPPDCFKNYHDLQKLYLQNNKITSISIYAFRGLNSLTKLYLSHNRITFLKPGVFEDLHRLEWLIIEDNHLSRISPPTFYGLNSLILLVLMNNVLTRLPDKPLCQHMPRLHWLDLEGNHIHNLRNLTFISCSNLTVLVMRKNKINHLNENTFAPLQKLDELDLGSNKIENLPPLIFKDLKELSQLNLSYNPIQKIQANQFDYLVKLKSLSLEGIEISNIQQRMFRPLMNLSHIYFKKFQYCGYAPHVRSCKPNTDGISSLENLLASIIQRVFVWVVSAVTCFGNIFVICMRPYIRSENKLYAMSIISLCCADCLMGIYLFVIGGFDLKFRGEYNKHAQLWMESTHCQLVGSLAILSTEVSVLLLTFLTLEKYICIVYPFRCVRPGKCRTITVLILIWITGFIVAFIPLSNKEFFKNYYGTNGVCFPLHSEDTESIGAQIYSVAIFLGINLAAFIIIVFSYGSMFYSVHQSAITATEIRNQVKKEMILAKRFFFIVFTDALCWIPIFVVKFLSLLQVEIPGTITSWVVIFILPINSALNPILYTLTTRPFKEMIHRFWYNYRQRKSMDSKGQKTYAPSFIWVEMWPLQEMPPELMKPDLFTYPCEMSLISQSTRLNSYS

Structure (SMILES) | Potency
CN(Cc1ccco1)S(=O)(=O)c1nnc(NC(=O)c2ccccc2)s1 | active: 22.4 µM [sample A] and inactive [sample B]
